Hit rate of the full screen: of about 140,000 compounds, about 240 (0.17%) were called active. Inconclusive means that the source gave no clear call. Such entries were picked first, then a sample of the others. Calls come from the whole dose curve; as a rule, active = well fitted inhibition curve with a large enough effect; inconclusive = small, poorly fitted or top-dose-only effect; inactive = no such curve, though single readings can be large or run the other way. Where the call is inconclusive, the potency comes from a doubtful curve fit.
assay: Primary qHTS assay for inhibitors of alpha-synuclein gene (SNCA) expression; conditions: HEK-293 SNCA-luciferase knock-in, luminescence, 24 h; series mostly up to 57.2 µM; note: nearly all actives have a fitted effect of over 45% in size
Potency is the fitted concentration of half-maximal effect; tags give direction and shape of the fitted curve.

| Compound | Potency |
| --- | --- |
| Cc1ccc(NS(=O)(=O)c2ccc3nc(-c4ccccc4)[nH]c3c2)cc1Cl | inconclusive: 39.8 µM [inhibitor, single point] |
| O=C1CC(c2ccccc2)N(C(=O)CNS(=O)(=O)c2cccc3cccnc23)CCCCCN1 (stereo unspecified) | inconclusive: 39.8 µM [inhibitor, single point] |
| CSc1nn(CC(=O)Nc2ccc(C)cc2C)c(N)c1S(=O)(=O)c1ccc(Cl)cc1 | inconclusive: 17.8 µM [inhibitor, partial curve, poor fit] |
| CNS(=O)(=O)c1ccc(C2CC(=O)Nc3cc(O)c(OC)cc32)cc1 (stereo unspecified) | inactive |
| O=C(c1ccccc1Cl)N1CCC(n2c(=O)[nH]c3ccccc32)CC1 | inconclusive: 17.8 µM [inhibitor, single point] |
| CSc1ccc(C(=O)N2CCN(Cc3ccccc3)CC(O)C2)cc1 (stereo unspecified) | inactive |
| CC(C)c1ccc(CNC(=O)c2cc3n(n2)CC(c2ccc(Cl)cc2)OC3)cc1 (stereo unspecified) | inconclusive: 39.8 µM [inhibitor, single point] |
| CC(C)=CCC1(C(=O)O)CCCN(C(=O)C2(Cn3cccn3)CC2)C1 (stereo unspecified) | inconclusive: 39.8 µM [inhibitor, single point] |
| O=C(C1CCCN1C(=O)c1ccccc1F)N1CCC(N2CCOCC2=O)CC1 (stereo unspecified) | inactive |
| CC(=O)N[C@@H]1C[C@H](Cc2ccccc2)O[C@H](c2c(C)nc3sccn23)C1 | inconclusive: 39.8 µM [inhibitor, single point] |
| O=C(Nc1ccc(Oc2ccccc2)cc1)O[C@@H]1CO[C@H]2[C@@H]1OC[C@@H]2NS(=O)(=O)c1cccs1 | inconclusive: 11.2 µM [inhibitor, partial curve, poor fit] |
| CC(C)=CCn1c(-c2ccc(F)cc2)cn2cc(C(=O)N3CCCCC3)nc2c1=O | inconclusive: 31.6 µM [inhibitor, partial curve, poor fit] |
| CN(Cc1ccc(-c2ccccc2)cc1)C(=O)C1CC1 | inactive |
| Cc1ccccc1Cn1nnc2c(=O)[nH]c(C3CCCN(C(=O)c4ccc(C(C)(C)C)cc4)C3)nc21 (stereo unspecified) | inconclusive: 39.8 µM [inhibitor, single point] |
| CC(C)NC(=O)N1CCCC1c1nnc2n1CCNC2 (stereo unspecified) | inactive |
| CC(C)(C)c1nc(C(=O)N2CCCC2)n2ccccc12 | inconclusive: 10 µM [inhibitor, partial curve, poor fit] |
| Cc1ccc(C(=O)N2CCN(C(=O)c3nc4cccnc4n(CC(C)C)c3=O)CC2)cc1 | inactive |
| O=C(CCCCn1c(=O)[nH]c2ccsc2c1=O)N1CCN(c2cccc(C(F)(F)F)c2)CC1 | inconclusive: 15.8 µM [inhibitor, partial curve, poor fit] |
| Cc1ccc2c(c1)c(C(=O)N[C@H](c1cnn(C)c1)C1CC(O)C1)nn2C (stereo partly specified) | inactive |
| O=C(N[C@@H]1CN(C(=O)Cn2c(=O)oc3ccccc32)CC[C@@H]1CO)c1ccccc1 | inconclusive: 35.5 µM [inhibitor, partial curve] |
| Cc1ccc([S+](=O)([O-])N2CCN(c3nccc(Nc4ccccc4F)n3)CC2)cc1 | inactive |
| CC1CCN(CC(=O)N2CCC(c3nc4ccccc4o3)CC2)C1=O (stereo unspecified) | inconclusive: 17.8 µM [inhibitor, single point] |

| Compound | Potency |
| --- | --- |
| COC(=O)[C@@H]1CN(C(=O)Nc2ccccc2)CCN1C(C)=O | inconclusive: 2.82 µM [inhibitor, partial curve, poor fit] |
| CCCN(C)c1nccnc1OC1CCN(C(=O)c2ccn[nH]2)C1 (stereo unspecified) | inactive |
| O=C([C@@H]1C[C@H](F)CN1C(=O)C1(c2ccccc2)CC1)N1CCCCC1 | inactive |
| CCn1nccc1C(=O)NCCC1CCN(C(=O)Nc2cc(F)cc(F)c2)CC1 | inactive |
| CNC(=O)C1(N2CCC[C@H]2C(=O)NCCOC)CCOCC1 | inactive |
| CCN1C(=O)CCc2cc(NC(=O)c3ccc(C(C)C)cc3)ccc21 | inactive |
| O=C(N[C@@H]1CN(C(=O)c2cccc3[nH]ccc23)CC[C@@H]1CO)C1CC1 | inconclusive: 11.2 µM [inhibitor, partial curve, poor fit] |
| O=C(NCc1cccs1)c1ccc(CN2C(=O)NC3(CCS(=O)(=O)CC3)C2=O)cc1 | inactive |
| COCCN1Cc2nc(Nc3ccc(C(F)(F)F)cc3)ccc2OCC1=O | inactive |
| O=C(N1CCC2(CC1)CC(N(Cc1ccccc1)C1CC1)CCO2)C1(c2ccccc2)CC1 (stereo unspecified) | inactive |
| CC1=C[C@@H](CNC(=O)CC(C)(C)C)[C@H](C(C)C)C[C@H]1CC(=O)O | inactive |
| CC(=O)NCc1nnc2n1C(C(=O)NCc1cccs1)CC2 (stereo unspecified) | inconclusive: 56.2 µM [inhibitor, single point] |
| CN(C)CCNC(=O)CCC[C@@H]1[C@H]2CCCN3CCC[C@@H](CN1C)[C@@H]23 | inconclusive: 31.6 µM [inhibitor, single point] |
| Cc1ccc(-c2nc3n(n2)C(c2ccccc2Cl)C=C(c2ccc(Cl)cc2)N3)cc1 (stereo unspecified) | inconclusive: 25.1 µM [inhibitor, single point] |
| COc1ccc(Nc2ccnc(N3CCC(N[S+](=O)([O-])c4c(C)noc4C)CC3)n2)cc1 | inactive |
| CCOC(=O)Cc1cc(C(=O)Nc2ccc(Br)cc2)sc1-c1ccc(C)cc1 | inconclusive: 39.8 µM [inhibitor, single point] |
| Cc1cccc(C)c1NC(=O)Cn1c(=O)n(Cc2ccc(C(=O)NCc3ccco3)cc2)c(=O)c2sccc21 | inconclusive: 39.8 µM [inhibitor, partial curve, poor fit] |
| COC1CCCN(c2cc(-c3ccc(Cl)cc3)nc3c(C)noc23)C1 (stereo unspecified) | inconclusive: 56.2 µM [inhibitor, single point] |
| CCNC(=O)N[C@H]1C[C@@H](Cc2cc(CN3CCN(c4ccccc4)CC3)on2)C1(C)C | inconclusive: 20 µM [inhibitor, partial curve] |
| CCCC(=O)N1CCc2cc(OC)c(OC)cc2C1COc1ccccc1OC (stereo unspecified) | inconclusive: 25.1 µM [inhibitor, partial curve, poor fit] |
| COc1ccccc1OCc1nnc(C(=O)N2CCC[C@@H]2C(c2ccccc2)c2ccccc2)n1-c1ccccc1 | inconclusive: 39.8 µM [inhibitor, single point] |
| Cc1cc(C)cc(OCC(=O)Nc2nonc2-c2ccc(Br)cc2)c1 | inconclusive: 2.51 µM [inhibitor, full curve] |

| Compound | Potency |
| --- | --- |
| CNC(=O)CCn1ncc2cc(OC3CCc4cccc(-c5ccc(O)c(F)c5)c43)ccc21 (stereo unspecified) | inactive |
| O=C(c1ccccc1)N1CCC(c2nn(-c3ccccn3)c(=O)[nH]2)CC1 | inactive |
| Cc1ccc2nc(C3CCCN(CC4CCCC4)C3)[nH]c(=O)c2c1 (stereo unspecified) | inconclusive: 3.55 µM [inhibitor, single point] |
| CNC(=O)[C@@H]1C[C@H](n2cc(CNS(=O)(=O)c3ccc(C)cc3F)nn2)CN1 | inactive |
| Cn1ccc(C(=O)N2CC(CNc3ccccc3)C3(C2)CN(c2ccccc2)C3)n1 (stereo unspecified) | inconclusive: 31.6 µM [inhibitor, single point] |
| Cc1ccc(CCNc2nc3c(S(=O)(=O)c4ccc(C)cc4)nnn3c3ccsc23)cc1 | inconclusive: 39.8 µM [inhibitor, single point] |
| Cc1cn2nc(-c3nc(C4CCCN(C(=O)c5ccccc5)C4)no3)cc2c(=O)[nH]1 (stereo unspecified) | inconclusive: 2.82 µM [inhibitor, partial curve, poor fit] |
| CC(C)c1ccc(NC(=O)c2ccc(NC(=O)CCS(=O)(=O)c3cccs3)cc2)cc1 | inconclusive: 4.47 µM [inhibitor, single point] |
| CCc1cccc(NC(=O)CN2C(=O)NC(c3ccc(Cl)cc3)C3=C2COC3=O)c1 (stereo unspecified) | inconclusive: 39.8 µM [inhibitor, single point] |
| O=C(c1cccc(Cl)c1)N1CCC2(C1)C(=O)N(CCc1ccccc1)c1ccccc12 (stereo unspecified) | inconclusive: 39.8 µM [inhibitor, single point] |
| COc1ccc(C(=O)N2CCC3(CC2)NC(=O)N(Cc2ccc(C)cc2)C3=O)cc1 | inactive |
| CC(=O)Nc1cc(C(=O)NCc2ccc(F)cc2Cl)ccc1Sc1ccc(Cl)cc1 | inconclusive: 14.1 µM [inhibitor, single point] |
| CC(C)C(=O)N1Cc2ccccc2CC2(CCCN(CC3CCNC3)C2)C1 (stereo unspecified) | inactive |
| O=[S+]([O-])(NC1CCN(c2ccnc3ccnn23)CC1)c1ccccc1 | inactive |
| O=[S+]1([O-])NC2(CCN(CC3CC3)CC2)COc2ccccc21 | inactive |
| COc1ccc(-c2noc([C@@H]3Cc4nc[nH]c4CN3Cc3ccccc3)n2)cc1 | inconclusive: 11.2 µM [inhibitor, full curve] |
| O=C(NCCC1CCN(C(=O)Nc2cc(F)ccc2F)CC1)C1CCCC1 | inconclusive: 10 µM [inhibitor, partial curve, poor fit] |
| Cc1ccc(Cl)cc1N1CCN(C(=O)Cn2cnc3nc4c(cc3c2=O)CCCC4)CC1 | inconclusive: 39.8 µM [inhibitor, single point] |
| Cc1noc(C)c1C(=O)N1CCN(c2ccc(C=O)cc2)C(=O)C1 | inconclusive: 50.1 µM [inhibitor, single point] |
| O=C(NCc1cccc(Br)c1)c1cccn1-c1nnc(N2CCCCC2)s1 | inconclusive: 11.2 µM [inhibitor, partial curve, poor fit] |
| CCN(CC)C(=O)Cn1c(=O)n(CCCCCC(=O)NCc2ccccc2Cl)c(=O)c2sccc21 | inconclusive: 7.08 µM [inhibitor, single point] |
| COCc1nc2c([nH]1)c(=O)n(C)c(=O)n2CC(C)C | inconclusive: 1.12 µM [inhibitor, full curve] |

— PubChem BioAssay AID1671194 (National Center for Advancing Translational Sciences (NCATS), 2021)
